The supplement of paper PMC4604168 (melanoma cell lines)
The other results are listed elsewhere or left out. Single values are uncertain, as repeats are few or missing.

What was measured:
Assay in all cases: cell count relative to DMSO control; melanoma cells; higher = more viable cells
Conditions in all cases: library dose: standard library concentration; 72 h
SkMel28 = system: SkMel28
SkMel30 = system: SkMel30
SkMel5 = system: SkMel5
UACC257 = system: UACC257
UACC62 = system: UACC62
WM115 = system: WM115
WM1716 = system: WM1716
WM1745 = system: WM1745
WM3526 = system: WM3526
SkMel2 = system: SkMel2
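Further: cells treated in 1,536-well plates, then fixed and DAPI-stained, with nuclei counted from automated high-throughput microscope images.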

Structure (SMILES)	cell count (SkMel28)	cell count (SkMel30)	cell count (SkMel5)	cell count (UACC257)	cell count (UACC62)	cell count (WM115)	cell count (WM1716)	cell count (WM1745)	cell count (WM3526)	cell count (SkMel2)
N.N.[Cl][Pt][Cl] [cisplatin] + NCC(=O)Nc1ccc(-n2nc(C(F)(F)F)cc2-c2ccc3c(ccc4ccccc43)c2)cc1 [OSU03012] (first compound 8 µM, partner dose 5 µM)	69.2%	62.8%	71.9%	72.4%	86.1%	76.8%	83.8%	121%	56.2%	
Cn1cc(C2=C(c3cn(C4CCN(Cc5ccccn5)CC4)c4ccccc34)C(=O)NC2=O)c2ccccc21 [Enzastaurin] + Cc1cc(SCc2sc(-c3ccc(C(F)(F)F)c(F)c3)nc2C)ccc1OCC(=O)O [GW0742] (first compound 4 µM, partner dose 10 µM)	76.9%	103%	85.8%	101%	46.8%	94.4%	63.1%		89.9%	48.9%
N.N.[Cl][Pt][Cl] [cisplatin] + Oc1nc(-c2ccc(C(F)(F)F)cc2)nc2c1CSCC2 [XAV939] (first compound 8 µM, partner dose 10 µM)	65.9%	105%	69.1%	72.7%	81%	83.8%	45.6%		82.3%	85.5%
Cn1cc(C2=C(c3cn(C4CCN(Cc5ccccn5)CC4)c4ccccc34)C(=O)NC2=O)c2ccccc21 [Enzastaurin] + O=C(Nc1ccccc1)c1cc([N+](=O)[O-])ccc1Cl [GW9662] (first compound 4 µM, partner dose 10 µM)	49.4%	87.4%	80.7%	72.3%	62.7%	94.9%	77.9%		76.3%	36.5%
N.N.[Cl][Pt][Cl] [cisplatin] + N#Cc1c(O)c2c(-c3ccc(-c4ccccc4O)cc3)csc2[nH]c1=O [A769662] (first compound 8 µM, partner dose 10 µM)	116%	89.5%	93.6%	72.5%	99.5%	95.5%	92.7%		86.7%	105%
N.N.[Cl][Pt][Cl] [cisplatin] + c1cc(-c2cnn3cc(-c4ccc(OCCN5CCCCC5)cc4)cnc23)ccn1 [Dorsomorphin] (first compound 8 µM, partner dose 2 µM)	60.1%	74.9%	55%	75.8%	76%	50.6%	80.8%		89.6%	86.8%
Cn1cc(C2=C(c3cn(C4CCN(Cc5ccccn5)CC4)c4ccccc34)C(=O)NC2=O)c2ccccc21 [Enzastaurin] + O=c1cc(-c2cccc3c2Sc2ccccc2S3)oc(N2CCOCC2)c1 [KU55933] (first compound 4 µM, partner dose 5 µM)	64.7%	107%	84.1%	90%	62.6%	113%	68.3%		76.9%	65.8%
C[C@]12O[C@H](C[C@]1(O)CO)n1c3ccccc3c3c4c(c5c6ccccc6n2c5c31)CNC4=O [Lestaurtinib] + CCCCCCCCCCCC1=C(O)C(=O)C=C(O)C1=O [Embelin] (first compound 0.02 µM, partner dose 6 µM)	67.6%	104%	89.4%	81.1%	102%	91.2%	84.4%		91.1%	94.2%
N.N.[Cl][Pt][Cl] [cisplatin] + COC(=O)c1sccc1S(=O)(=O)Nc1ccc(Nc2ccccc2)cc1OC [GSK0660] (first compound 8 µM, partner dose 5 µM)	89.9%	121%	144%	82%	86.7%	91.2%	102%		90.7%	95.9%
N.N.[Cl][Pt][Cl] [cisplatin] + COc1cc2ncnc(Nc3ccc(Oc4ccccc4)cc3)c2cc1OC [SrcI1] (first compound 8 µM, partner dose 10 µM)	73.8%	73.4%	67%	63.5%	60.8%	71%	82.6%		65.9%	96.4%
C[C@]12O[C@H](C[C@]1(O)CO)n1c3ccccc3c3c4c(c5c6ccccc6n2c5c31)CNC4=O [Lestaurtinib] + COc1ccc(-c2ccc3c(N4CCOCC4)nc(N4C[C@@H](C)O[C@@H](C)C4)nc3n2)cc1CO [KU0063794] (first compound 0.02 µM, partner dose 0.1 µM)	52.5%	65.5%	47.1%	87%	63.1%	59.2%	65.1%		52.4%	84.8%
C[As](C)SC[C@H](NC(=O)CC[C@H](N)C(=O)O)C(=O)NCC(=O)O [Darinaparsin] + COc1cc(N2CCC(N3CCN(C)CC3)CC2)ccc1Nc1ncc(Cl)c(Nc2ccccc2S(=O)(=O)C(C)C)n1 [NVP-TAE684] (first compound 2 µM, partner dose 0.4 µM)	62%	102%	50.5%	77.2%	108%	64.4%	58.3%	57%	71.9%	
